The supplement of paper PMC3334620
Whole data set: some 33,000 sequences, median “E-score (-0.5 to 0.5)” near -0.012, cut for the highest 2% near 0.29. Some of the results follow.

Biological target: T1, Ybr033w (UniProt P38073)
T1 sequence: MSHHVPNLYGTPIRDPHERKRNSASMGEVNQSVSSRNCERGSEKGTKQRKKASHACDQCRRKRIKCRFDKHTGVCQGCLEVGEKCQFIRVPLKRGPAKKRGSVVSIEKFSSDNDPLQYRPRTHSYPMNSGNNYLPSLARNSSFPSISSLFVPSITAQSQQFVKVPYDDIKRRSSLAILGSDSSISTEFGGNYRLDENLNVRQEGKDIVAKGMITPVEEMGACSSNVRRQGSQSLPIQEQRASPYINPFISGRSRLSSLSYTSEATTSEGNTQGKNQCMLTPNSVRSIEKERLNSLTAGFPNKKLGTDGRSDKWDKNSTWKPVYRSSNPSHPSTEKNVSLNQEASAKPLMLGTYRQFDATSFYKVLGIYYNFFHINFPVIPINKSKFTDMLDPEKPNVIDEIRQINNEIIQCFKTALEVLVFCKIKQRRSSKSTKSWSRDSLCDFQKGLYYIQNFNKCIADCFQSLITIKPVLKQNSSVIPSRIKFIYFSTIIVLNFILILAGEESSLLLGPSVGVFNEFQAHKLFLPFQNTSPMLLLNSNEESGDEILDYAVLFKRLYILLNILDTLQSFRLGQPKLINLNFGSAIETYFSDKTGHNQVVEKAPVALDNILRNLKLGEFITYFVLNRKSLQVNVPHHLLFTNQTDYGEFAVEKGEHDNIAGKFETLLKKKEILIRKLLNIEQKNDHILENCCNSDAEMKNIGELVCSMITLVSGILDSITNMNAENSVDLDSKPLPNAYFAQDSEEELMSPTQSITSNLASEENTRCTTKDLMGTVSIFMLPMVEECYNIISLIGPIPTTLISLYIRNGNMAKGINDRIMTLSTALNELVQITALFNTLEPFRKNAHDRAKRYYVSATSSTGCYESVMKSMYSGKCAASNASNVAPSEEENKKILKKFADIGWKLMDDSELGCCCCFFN
Test: PBM E-score (8-mer binding enrichment) (E-score (-0.5 to 0.5)); higher = stronger / more preferred TF binding; most listed sequences are background and not binding sites
Conditions: protein concentration: 200 nM; construct: GST-full length
Outline: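 Bound GST-tagged yeast transcription factors, applied at about 100-200 nM to double-stranded universal all-10-mer Agilent arrays, were detected with fluorescent anti-GST. Scans were normalised with masliner. A modified Wilcoxon-Mann-Whitney statistic, the E-score, was assigned to each ungapped eight-base word pooled with its reverse complement by the Universal PBM Analysis Suite.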

Sequence	PBM E-score
AATGCAAC	0.0176
CTTTTGGC	-0.0369
ATTTCAGC	-0.0455
CTGACATC	-0.0781
GGCGCGCA	-0.0682
TCCTGCGA	-0.0113
ATGCTTTA	-0.0011
CGGAGGTA	-0.146
AGCTTTTC	0.0408
AGAGGTCG	-0.128
CTCGAGTA	-0.0178
AGGTTACG	-0.03
CTTGTAAC	0.143
ACCACCAG	0.0382
GCCCTTAC	-0.285
CTATAAGA	0.0738
GCGGGCAC	-0.0586
ACTCGAGA	0.0536
CAGGGGCC	-0.228
GTCATCGA	0.0247
TCCGTCGA	0.0166
CTCCTCAG	-0.178
CTTCCAGC	-0.208
TCGAAACA	0.222
CTCCTATA	-0.117

Sequence	PBM E-score
ATCATATA	0.269
CCACAATC	0.00169
AGTCCGGC	-0.17
TAAGGACA	-0.0159
GCACTTAC	0.0348
GAACTGAA	0.0824
CGTGCCTC	-0.0375
CAGGAAGA	0.169
ACGTCTGA	0.0997
ACATAGAG	-0.116
ACGGACCA	0.159
CTGACACC	-0.0832
ACAATGCT	0.182
TGGATTAA	0.38
GGCTTGCA	-0.0086
CGCTGACA	-0.167
AGCCGAAA	0.152
CTCCCGTA	-0.218
GTGCTAAC	0.0153
AATTTACC	0.103
AATGACTA	-0.0342
AAGATGAT	0.108
CGACCGCA	-0.0166
AGCTGTAG	0.0316
ATGTGGGG	-0.246

Sequence	PBM E-score
GGTAGAAC	-0.0448
GCCCCCAA	-0.251
ACATTGGT	0.13
GAGGTGGC	-0.207
ACTATAAG	0.169
GATTCATA	0.0364
CAAAGAGG	-0.0846
CTAGGAGC	-0.284
CAATAGCC	-0.0498
AATCGACT	0.0161
CCTAGCAA	0.0864
ACGTGACT	-0.145
TGGTTCAA	0.16
CCTCGCTC	0.0674
GACACGAC	-0.0129
AATCGTAG	0.131
CGTCCCAC	-0.127
ACACGCGC	-0.0704
CTAAGGCA	-0.099
GAGTTGCA	-0.0795
CTCGAATA	-0.144
ATGCACCG	0.0243
AAAGAATT	0.0904
CCGCACAA	0.0236
GTTGACAA	0.167

Sequence	PBM E-score
CTGCCCAA	-0.138
CACAGGTG	-0.0211
ATACGTGC	-0.058
AACTACCC	0.0868
AAGGTAGA	-0.0181
AGATTTAA	0.106
CAGTGACC	-0.186
CCTGCAAA	0.00163
GCTACTGA	-0.0376
GAAAGAAA	0.18
GTAGGGTA	0.0576
AACGGTAA	0.0679
ACTCCCGA	0.0167
TACAAGAA	0.189
GTAAGCAC	-0.0452
CTAGTCAC	0.103
CCGGGCTA	-0.131
AGTCTACG	-0.0895
CAGGGTAG	-0.19
AGCAACAC	0.0825
GGTCCACC	-0.2
GTCCAGAC	-0.308
AGCTATCA	0.147
GAGCATTA	0.122
AGGAACGC	-0.13

Sequence	PBM E-score
CTTTCGGA	-0.105
CTGAGCCC	-0.108
ATCTCCTA	0.0115
CTCTCTAA	-0.124
CAATAGAA	0.0692
AGGTCTCC	-0.204
ACTACACC	-0.181
ACTACGGG	-0.232
GCCTGAGC	-0.311
ACGTGCAC	-0.163
ATGGGGGG	-0.226
GTGGCAAA	-0.0397
ACAACTGT	0.106
CTAGCATC	0.0319
AAGAGCTC	-0.196
CGGGACGC	-0.181
ACCCGATC	-0.174
CACCTAGG	-0.2
AAGTGCAG	-0.127
AATTTGGG	0.234
ACTGCGAG	-0.0835
AGTGCCTA	-0.032
AACTCGAC	0.167
AGAGCGCA	-0.161
ATCCCAAT	-0.0376

Sequence	PBM E-score
AGTCAATC	0.0631
AAGAGGGT	-0.109
GTTAAGGA	0.121
AGTAATTG	0.129
ACTGGGCT	-0.166
CTTGCCTA	-0.0748
AGACTGAC	-0.0184
ATGTATAG	0.201
CGCGTCCC	-0.19
ATTGCCTA	-0.147
AGTTCGTC	0.0866
CTGCGTCA	-0.079
CACCGGCA	-0.0593
AGGCTTCG	-0.0656
GATCTTAA	0.117
ACGCTCCG	-0.196
ACGAGATC	-0.0123
GCACGCGC	-0.171
GATCTTAC	0.0169
AGCGAGCG	-0.0336
GATATTAA	0.251
GACACGTC	-0.291
CTTCAAGA	0.12
AACTTTAG	0.187
CGACATGC	0.00015

Sequence	PBM E-score
AGTTACGA	0.199
AGGCGGAC	-0.121
AATACACG	-0.074
AGCCCTCC	-0.27
CGAGGCGA	-0.0647
GCTGAAGC	-0.0698
AAGCTCAA	0.1
CTCTCTTC	-0.104
AATTCCAT	0.184
CGGTCTGC	-0.233
CGACGAAA	0.168
GATAACCC	-0.0994
ATTGTCCC	-0.00073
GACTTGGA	-0.0152
ACGGTGGC	-0.095
AAAGAAGA	0.209
CGTTGGAC	-0.335
AACGCAGG	-0.176
CCGGTATC	-0.0214
ACCCGGTG	-0.172
CAAATGGC	0.0594
ACGATGAA	0.0998
